± gives the standard deviation of the averaged measurements. Over roughly 33,000 sequences, “E-score (dimensionless, -0.5 to 0.5)” has its median near -0.049; the highest 2% begin near 0.37. The list shows a part of the results.
test system: T1, PmTbr T-box DNA-binding domain (GST fusion); assay: PBM E-score of 8-mer (E-score (dimensionless, -0.5 to 0.5)); Tbr is Tbrain of the sea star Patiria miniata (Pm) or the sea urchin Strongylocentrotus purpuratus (Sp); higher = stronger binding preference; most listed sequences are background and not binding sites; conditions: the construct has about 5 more residues each side
T1 sequence: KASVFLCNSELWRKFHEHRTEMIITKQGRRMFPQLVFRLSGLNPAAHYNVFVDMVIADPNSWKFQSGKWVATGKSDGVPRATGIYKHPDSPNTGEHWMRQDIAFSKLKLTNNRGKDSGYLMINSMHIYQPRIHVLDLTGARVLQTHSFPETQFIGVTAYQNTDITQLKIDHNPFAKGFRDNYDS
Experimental: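 Universal protein-binding microarray (Agilent AMADID 016060, 60-bp probes with a 35-bp variable region) incubated with 200 nM GST-fused Patiria miniata Tbr T-box DNA-binding domain (residues 272-466) in PBS pH 7.5. Scored for every ungapped 8-mer (given with its reverse complement) by the Universal PBM Analysis Suite as E-score (modified Wilcoxon-Mann-Whitney enrichment, range -0.5 to 0.5; >0.45 counts as bound) and Z-score of median probe intensity. Two replicate arrays (datasets 1 and 2).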

Row | Sequence | PBM E-score of 8-mer
1 | GCTATTGA | 0.00989 ± 0.062
2 | ACAGTGCA | -0.1063 ± 0.00079
3 | CACGGATA | -0.0652 ± 0.11
4 | ACTTCATA | -0.0573 ± 0.087
5 | CTGCCAGC | 0.0368 ± 0.011
6 | CCAGAGTA | -0.0866 ± 0.053
7 | ACTGCAAG | -0.124 ± 0.14
8 | GGAGAGTA | -0.153 ± 0.048
9 | TCTTAGAA | -0.0982 ± 0.088
10 | CACTTATA | 0.193 ± 0.0034
11 | ACTTTTGA | -0.0571 ± 0.043
12 | ACCATCGC | 0.216 ± 0.014
13 | ACAATACG | -0.058 ± 0.035
14 | ACACACTG | 0.138 ± 0.019
15 | CGACTTCA | -0.0422 ± 0.013
16 | AGGATTGG | -0.109 ± 0.04
17 | CCCAACCG | -0.107 ± 0.006
18 | CACAAGTA | 0.065 ± 0.01
19 | AGAAGCAA | -0.207 ± 0.0053
20 | AACCGCTC | -0.157 ± 0.039
21 | AGAGATCG | 0.0683 ± 0.06
22 | CATGTAAG | 0.0322 ± 0.026
23 | CTAAGGCC | -0.196 ± 0.045
24 | AATCCACT | -0.272 ± 0.041
25 | GCCTCGCA | 0.143 ± 0.014

Row | Sequence | PBM E-score of 8-mer
26 | CCGAGGAA | -0.297 ± 0.015
27 | ACGTGTCT | 0.198 ± 0.0036
28 | AATATAGG | -0.1 ± 0.024
29 | CGTGGGAC | 0.0231 ± 0.021
30 | CTGGCTCA | 0.0686 ± 0.056
31 | TCGAACAA | -0.125 ± 0.059
32 | ACATCTGG | 0.0376 ± 0.0026
33 | GAAGGAGC | -0.195 ± 0.033
34 | GAATTGAC | 0.131 ± 0.032
35 | ATGCCTTG | -0.208 ± 0.0088
36 | CCAGGGCG | -0.0636 ± 0.049
37 | CTCCACGA | -0.0914 ± 0.033
38 | AAAGAGCG | -0.0458 ± 0.095
39 | AACAAGCC | 0.0289 ± 0.082
40 | GCCCCACA | 0.0796 ± 0.065
41 | GCGGGTCC | -0.0761 ± 0.13
42 | GCTATTCC | -0.164 ± 0.054
43 | CGTCCTTA | -0.252 ± 0.0069
44 | ATCTATAG | -0.192 ± 0.014
45 | CTGATCCA | -0.263 ± 0.021
46 | ACATCAAG | 0.0617 ± 0.036
47 | CGCGCTCC | 0.0854 ± 0.0011
48 | GAGTGCTA | 0.342 ± 0.0098
49 | AACTCCGG | -0.0239 ± 0.0016
50 | AGTTTGTC | 0.137 ± 0.042

Row | Sequence | PBM E-score of 8-mer
51 | TGAACCAA | -0.038 ± 0.008
52 | AAATCAAA | -0.227 ± 0.005
53 | ATCGCTAC | 0.172 ± 0.022
54 | ACGGTATG | -0.054 ± 0.044
55 | AGTTACCG | -0.00622 ± 0.025
56 | CATATTCG | 0.0178 ± 0.033
57 | GCGTATAA | -0.0863 ± 0.039
58 | GTAGACAA | -0.0161 ± 0.17
59 | GGACTTGA | -0.145 ± 0.015
60 | CGGACGAA | -0.0167 ± 0.087
61 | ACGGGCCC | -0.139 ± 0.0076
62 | ATTAAACC | -0.166 ± 0.018
63 | ATTCTTGG | -0.232 ± 0.03
64 | AGACCCCT | -0.245 ± 0.086
65 | ATCAATGA | -0.141 ± 0.079
66 | GGCCCACC | -0.179 ± 0.059
67 | ACGTACTA | -0.101 ± 0.043
68 | CGATTCTC | 0.155 ± 0.055
69 | GAGGGGAA | -0.0558 ± 0.037
70 | CCTACTCC | -0.208 ± 0.019
71 | GACCCGCA | -0.0994 ± 0.029
72 | GCGCTCCA | -0.146 ± 0.046
73 | ATCCTCCG | -0.23107 ± 0.00014
74 | GACAATAA | -0.0138 ± 0.14
75 | CTAGTAAC | -0.194 ± 0.023

Row | Sequence | PBM E-score of 8-mer
76 | CGACACTC | 0.353 ± 0.012
77 | ATCGTCGC | 0.0934 ± 0.014
78 | CAGCGCGG | 0.161 ± 0.046
79 | CACCGGTG | 0.118 ± 0.02
80 | ATTGATGG | -0.0997 ± 0.1
81 | CGACGGAG | -0.228 ± 0.049
82 | GAAGGTCA | 0.00198 ± 0.022
83 | CCGTTCAC | 0.363 ± 0.032
84 | CCTACGAA | -0.185 ± 0.08
85 | ACCTCCTC | 0.194 ± 0.07
86 | CTTGTGTA | -0.0312 ± 0.044
87 | CCGAAAGA | -0.15 ± 0.017
88 | CGCATCGC | 0.132 ± 0.0025
89 | GAATCTCC | -0.207 ± 0.018
90 | CCCTTCTC | -0.185 ± 0.1
91 | GTTTTCGA | -0.0457 ± 0.054
92 | CATTGGTC | -0.0726 ± 0.0062
93 | CACAAATC | 0.152 ± 0.015
94 | AACGAAAG | -0.213 ± 0.061
95 | GGGGTGGA | -0.0293 ± 0.00067
96 | AAAGTTCC | -0.0189 ± 0.053
97 | GAGCCGGC | -0.195 ± 0.059
98 | TCATGAAA | -0.155 ± 0.094
99 | AGTTTATG | -0.166 ± 0.021
100 | CAGTTCGG | -0.194 ± 0.042

Row | Sequence | PBM E-score of 8-mer
101 | ATGTGTCG | 0.402 ± 0.0094
102 | CACCTCTC | 0.419 ± 0.023
103 | CTAAGATA | 0.113 ± 0.08
104 | CGTGAGCC | -0.00439 ± 0.056
105 | ATCAATTA | -0.0764 ± 0.18
106 | AGCAATAC | -0.131 ± 0.023
107 | ACTTTCCG | 0.0265 ± 0.076
108 | AGGTGGCG | 0.412 ± 0.023
109 | ACCTTGGG | 0.00928 ± 0.0083
110 | TGTGTGAA | 0.4728 ± 0.0017
111 | TCTACAAA | -0.119 ± 0.006
112 | AATGTAGT | -0.082 ± 0.11
113 | ACTTGAGA | 0.211 ± 0.021
114 | AATCTTAT | -0.0504 ± 0.069
115 | AACATGTA | -0.0486 ± 0.06
116 | CAAGCTTG | 0.0509 ± 0.017
117 | ATGCCCTG | -0.173 ± 0.021
118 | AGAGGAAT | -0.19 ± 0.026
119 | CAGTTCTC | 0.1801 ± 0.00042
120 | GATGCGTA | 0.00998 ± 0.021
121 | CTATCTCA | 0.16 ± 0.025
122 | AGACTTTC | -0.00978 ± 0.08
123 | AAACCCCC | -0.123 ± 0.018
124 | ACATAATC | -0.0607 ± 0.0033
125 | GAGTTCCC | -0.291 ± 0.0084

Row | Sequence | PBM E-score of 8-mer
126 | AGAGTATA | -0.0854 ± 0.04
127 | ATGAGCCG | -0.0592 ± 0.039
128 | ACCTTCTG | 0.0725 ± 0.01
129 | ACAGCGCC | 0.0632 ± 0.073
130 | AAGACCTA | -0.243 ± 0.043
131 | CTCGGGTA | -0.138 ± 0.011
132 | ACAGGTCA | 0.124 ± 0.051
133 | AATACGGG | -0.108 ± 0.013
134 | CGCCCGTC | 0.0562 ± 0.17
135 | GTGTACTA | -0.0987 ± 0.0014
136 | GTCGGAAA | -0.0258 ± 0.018
137 | GTAAGGTA | -0.0348 ± 0.066
138 | ATTCTACG | -0.294 ± 0.065
139 | GCGCCGCC | 0.0263 ± 0.12
140 | GGGGCTCA | -0.171 ± 0.025
141 | AAAAAGCG | 0.0254 ± 0.042
142 | ACCGACAA | -0.0367 ± 0.05
143 | GCTGTCGA | 0.187 ± 0.014
144 | CACTTACA | 0.268 ± 0.0083
145 | CCCTATCC | 0.0967 ± 0.02
146 | AAAGAAAT | -0.0667 ± 0.016
147 | CACTGCTG | -0.132 ± 0.038
148 | CATTTGAG | -0.195 ± 0.0064
149 | ATTCCCCG | -0.0984 ± 0.03
150 | AATTTCAT | -0.0528 ± 0.062

Row | Sequence | PBM E-score of 8-mer
151 | CGGGACCA | -0.178 ± 0.082
152 | AAGTCCCA | -0.0928 ± 0.075
153 | CAACAGTA | -0.0685 ± 0.048
154 | AATATTCA | -0.0178 ± 0.073
155 | CTGAGTGA | 0.0367 ± 0.03
156 | AGTAGATC | -0.323 ± 0.031
157 | GTCGAATA | -0.113 ± 0.031
158 | CATAATGG | 0.00285 ± 0.034
159 | CACAGCGA | 0.0526 ± 0.053
160 | CCGTTACC | -0.0335 ± 0.09
161 | AGACGGAG | 0.0235 ± 0.00075
162 | ATACGCTA | -0.0402 ± 0.067
163 | GATATGAA | 0.133 ± 0.062
164 | ATCTTAGA | -0.0793 ± 0.081
165 | ATTATGTA | -0.122 ± 0.044
166 | CACTAATG | 0.0749 ± 0.0057
167 | ACCAGTCT | -0.146 ± 0.029
168 | ACTCCCCC | -0.313 ± 0.013
169 | ACTTGAAC | -0.192 ± 0.034
170 | GTGACGCA | 0.247 ± 0.0029
171 | AAGTATAC | 0.00161 ± 0.031
172 | ACGTCTGG | -0.162 ± 0.011

Reference: the supplement of paper PMC4166925
